The list shows a part of the results.
B1: PhoQ; a variant is named by its letters at X, in order, P23837 (parent)
chain: MKKLLRLFFPLSLRVRFLLATAAVVLVLSLAYGMVALIGYSVSFDKTTFRLLRGESNLFYTLAKWENNKLHVELPENIDKQSPTMTLIYDENGQLLWAQRDVPWLMKMIQPDWLKSNGFHEIEADVNDTSLLLSGDHSIQQQLQEVREDDDDAEMTHSVAVNVYPATSRMPKLTIVVVDTIPVELKSSYMVWSWFIYVLSANLLLVIPLLWVAAWWSLRPIEALAKEVRELEEHNRELLNPATTRELTSLVRNLNRLLKSERERYDKYRTTLTDLTHSLKTPLXXLQXXLRSLRSEKMSVSDAEPVMLEQISRISQQIGYYLHRASMRGGTLLSRELHPVAPLLDNLTSALNKVYQRKGVNISLDISPEISFVGEQNDFVEVMGNVLDNACKYCLEFVEISARQTDEHLYIVVEDDGPGIPLSKREVIFDRGQRVDTLRPGQGVGLAVAREITEQYEGKIVAGESMLGGARMEVIFGRQHSAPKDE

Variants of: B1
Test: enrichment ratio after two sorts for PhoP signalling (ratio (wild type AVST 3.29)); higher = more functional
Settings: with PhoP (E. coli)

**Q.** For DFGI, which enrichment ratio is on record?
**A.** ≤ 0.25

**Q.** For YKHV, which enrichment ratio is on record?
**A.** ≤ 0.25

**Q.** For HSTN, which enrichment ratio is on record?
**A.** ≤ 0.25

**Q.** How did the enrichment ratio turn out when ELCF was run?
**A.** 3.34

**Q.** For MLIN, which enrichment ratio is on record?
**A.** ≤ 0.25

**Q.** SNNH was tested. Which enrichment ratio did it give?
**A.** 0.834

**Q.** For EIIR, which enrichment ratio is on record?
**A.** ≤ 0.25

**Q.** EFPG was tested. Which enrichment ratio did it give?
**A.** ≤ 0.25

**Q.** HDGL was tested. Which enrichment ratio did it give?
**A.** ≤ 0.25

**Q.** How did the enrichment ratio turn out when QQYD was run?
**A.** ≤ 0.25

**Q.** How did the enrichment ratio turn out when PGLY was run?
**A.** ≤ 0.25

**Q.** With TDFF as the variant, how does the enrichment ratio read?
**A.** ≤ 0.25

**Q.** Which enrichment ratio does the source give for LTRV here?
**A.** ≤ 0.25

**Q.** For MCVG, which enrichment ratio is on record?
**A.** ≤ 0.25

**Q.** GMSF was tested. Which enrichment ratio did it give?
**A.** 0.7

**Q.** With APQP as the variant, how does the enrichment ratio read?
**A.** ≤ 0.25

**Q.** VFMC was tested. Which enrichment ratio did it give?
**A.** ≤ 0.25

**Q.** How did the enrichment ratio turn out when PEGP was run?
**A.** ≤ 0.25

**Q.** With ECMP as the variant, how does the enrichment ratio read?
**A.** ≤ 0.25

**Q.** YRHM was tested. Which enrichment ratio did it give?
**A.** ≤ 0.25

**Q.** Which enrichment ratio does the source give for PRTM here?
**A.** ≤ 0.25

**Q.** VSYD was tested. Which enrichment ratio did it give?
**A.** ≤ 0.25

**Q.** With SNEK as the variant, how does the enrichment ratio read?
**A.** ≤ 0.25

**Q.** For FGNY, which enrichment ratio is on record?
**A.** ≤ 0.25

**Q.** With LKIN as the variant, how does the enrichment ratio read?
**A.** ≤ 0.25

**Q.** For EFGW, which enrichment ratio is on record?
**A.** ≤ 0.25

**Q.** WQQP was tested. Which enrichment ratio did it give?
**A.** ≤ 0.25

**Q.** Which enrichment ratio does the source give for TAEP here?
**A.** 0.518

**Q.** For RGTV, which enrichment ratio is on record?
**A.** ≤ 0.25

**Q.** QSDY was tested. Which enrichment ratio did it give?
**A.** 14.5

**Q.** For LPCM, which enrichment ratio is on record?
**A.** ≤ 0.25

**Q.** With YPYP as the variant, how does the enrichment ratio read?
**A.** ≤ 0.25

**Q.** With NPPS as the variant, how does the enrichment ratio read?
**A.** ≤ 0.25

**Q.** Which enrichment ratio does the source give for DRRA here?
**A.** 0.527

**Q.** HSVW was tested. Which enrichment ratio did it give?
**A.** ≤ 0.25

**Q.** With GLFN as the variant, how does the enrichment ratio read?
**A.** ≤ 0.25

**Q.** Which enrichment ratio does the source give for PETC here?
**A.** ≤ 0.25

**Q.** Which enrichment ratio does the source give for FENP here?
**A.** ≤ 0.25

**Q.** HPST was tested. Which enrichment ratio did it give?
**A.** ≤ 0.25

**Q.** LSQD was tested. Which enrichment ratio did it give?
**A.** ≤ 0.25

**Q.** Which enrichment ratio does the source give for DALR here?
**A.** ≤ 0.25

**Q.** How did the enrichment ratio turn out when RFIP was run?
**A.** ≤ 0.25

**Q.** With MTGV as the variant, how does the enrichment ratio read?
**A.** 1.48

**Q.** For LNTI, which enrichment ratio is on record?
**A.** ≤ 0.25

**Q.** How did the enrichment ratio turn out when DAWV was run?
**A.** ≤ 0.25

**Q.** For VDDT, which enrichment ratio is on record?
**A.** ≤ 0.25

**Q.** Which enrichment ratio does the source give for YTYD here?
**A.** ≤ 0.25

**Q.** For SHPA, which enrichment ratio is on record?
**A.** ≤ 0.25

**Q.** How did the enrichment ratio turn out when HQIM was run?
**A.** ≤ 0.25

**Q.** Which enrichment ratio does the source give for YRGL here?
**A.** ≤ 0.25

**Q.** HKWC was tested. Which enrichment ratio did it give?
**A.** ≤ 0.25

**Q.** MRHL was tested. Which enrichment ratio did it give?
**A.** ≤ 0.25

**Q.** Which enrichment ratio does the source give for KSSI here?
**A.** ≤ 0.25

**Q.** How did the enrichment ratio turn out when YHNV was run?
**A.** ≤ 0.25

**Q.** MGCN was tested. Which enrichment ratio did it give?
**A.** 5.8

**Q.** NWTD was tested. Which enrichment ratio did it give?
**A.** ≤ 0.25

**Q.** For TWNP, which enrichment ratio is on record?
**A.** ≤ 0.25

**Q.** Which enrichment ratio does the source give for EVGF here?
**A.** ≤ 0.25

**Q.** MNDC was tested. Which enrichment ratio did it give?
**A.** ≤ 0.25

**Q.** For WTMP, which enrichment ratio is on record?
**A.** ≤ 0.25

**Q.** TYSE was tested. Which enrichment ratio did it give?
**A.** ≤ 0.25

**Q.** How did the enrichment ratio turn out when IIYW was run?
**A.** ≤ 0.25

**Q.** Which enrichment ratio does the source give for SLSW here?
**A.** 4.5

**Q.** With LEFK as the variant, how does the enrichment ratio read?
**A.** ≤ 0.25

**Q.** For DDRA, which enrichment ratio is on record?
**A.** ≤ 0.25

**Q.** Which enrichment ratio does the source give for FYST here?
**A.** ≤ 0.25

**Q.** QRCH was tested. Which enrichment ratio did it give?
**A.** ≤ 0.25

**Q.** For IVKA, which enrichment ratio is on record?
**A.** ≤ 0.25

**Q.** Which enrichment ratio does the source give for QYGK here?
**A.** ≤ 0.25

**Q.** FGCV was tested. Which enrichment ratio did it give?
**A.** 5.46

**Q.** Which enrichment ratio does the source give for WYRN here?
**A.** ≤ 0.25

**Q.** For NMGW, which enrichment ratio is on record?
**A.** ≤ 0.25

**Q.** For IFIY, which enrichment ratio is on record?
**A.** ≤ 0.25

**Q.** For SRLD, which enrichment ratio is on record?
**A.** ≤ 0.25

**Q.** How did the enrichment ratio turn out when PIRK was run?
**A.** ≤ 0.25

**Q.** Which enrichment ratio does the source give for HFCQ here?
**A.** ≤ 0.25

**Q.** Which enrichment ratio does the source give for TRQH here?
**A.** ≤ 0.25

**Q.** How did the enrichment ratio turn out when HCLY was run?
**A.** ≤ 0.25

**Q.** With GMIM as the variant, how does the enrichment ratio read?
**A.** 2.67

**Q.** Which enrichment ratio does the source give for PKHG here?
**A.** ≤ 0.25

**Q.** ITTY was tested. Which enrichment ratio did it give?
**A.** ≤ 0.25

**Q.** How did the enrichment ratio turn out when VNWN was run?
**A.** ≤ 0.25

**Q.** How did the enrichment ratio turn out when RSTH was run?
**A.** ≤ 0.25

**Q.** For AKEM, which enrichment ratio is on record?
**A.** ≤ 0.25
